# Experimental data from PubChem BioAssay AID686979 (National Center for Advancing Translational Sciences (NCATS), 2013).
# The campaign covered roughly 420,000 compounds. About 50,000 (12%) were called active. Inconclusive results, whose numbers are uncertain, are shown with a selection of clear calls. The call rests on the fitted dose curve; in most records, active means well fitted inhibition curve with a large enough effect; inconclusive means small, poorly fitted or top-dose-only effect; inactive means flat fitted curve, though single readings scatter. Potencies of inconclusive entries are left out as doubtful fits.
# Assay: qHTS for Inhibitors of human tyrosyl-DNA phosphodiesterase 1 (TDP1): qHTS in cells in presence of CPT; further: nearly all actives have a fitted effect of over 55% in size
# Conditions: chicken DT40 Tdp1-/-;hTDP1 cells + 20 nM CPT, ATP luminescence, 48 h; activity change, negative = growth inhibition: at 46.2 µM (top of the series) unless noted
# In short: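 Chicken DT40 Tdp1-/- cells complemented with human TDP1, 400 cells/well, exposed to compounds plus 20 nM camptothecin for at least 48 h at 37 C; viability read as ATP content by CellTiter-Glo luminescence.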
# On the % scale 0 is the no-effect control and ±100 the full control effect; potency means the concentration at half of the fitted maximal effect; tags describe the fitted curve by direction and shape.
Compound,Potency,"activity change, negative = growth inhibition"
COc1ccc(CNC(=O)c2cccn2-c2nnc(N3CCCCC3)s2)c(OC)c1,"inconclusive [inhibitor, single point]",
COC(=O)c1ccc(CSC2=NC[C@@H]3[C@@H]4C(=O)N(Cc5ccccc5)C(=O)[C@@H]4[C@](Cc4ccccc4)(C(=O)OC)N23)cc1,"inconclusive [inhibitor, single point]",
COc1ccc(CCNC(=O)CS(=O)(=O)Cc2nc(-c3cccc(Cl)c3)oc2C)cc1OC,"inconclusive [inhibitor, single point]",
COc1ccc(-c2cc(C(=O)NCCc3ccccc3)c3c(-c4ccc(Cl)cc4)[nH]nc3n2)cc1,active: 11.6 µM,
COC(=O)[C@]12CCCCC=C1N(Cc1ccc(Cl)cc1Cl)C(=O)[C@H](CC(=O)N1CCOCC1)C2,"inconclusive [inhibitor, single point]",
CC(C)c1ccccc1NC(=O)Cn1cnc2c1c(=O)n(C)c(=O)n2C,inactive,
CN(C)CCCNc1nc2cc(-c3cccc(Cl)c3)sc2c(=O)n1C,"inconclusive [inhibitor, single point]",
COc1ccc(Cl)cc1S(=O)(=O)NCc1ccncc1,"inconclusive [inhibitor, single point]",
N=C(N)CCCOc1ccccc1-c1ccccc1,"inconclusive [inhibitor, single point]",
O=C(N/N=C/c1cccs1)c1[nH]ncc1Br,inactive,
CCOc1cc(N2CCOCC2)c(OCC)cc1NS(=O)(=O)c1cc(NC(C)=O)ccc1OC,inactive,
Cc1ccccc1C(=O)N1CCC2CC1c1cc(-c3ccc(F)cc3)ccc12 (centres undefined),"inconclusive [inhibitor, single point]",
O=C(CCS(=O)(=O)c1cc(Br)cc2c1N(C(=O)C1CC1)CC2)N1CCN(c2cccc(C(F)(F)F)c2)CC1,active: 16.4 µM,
C[C@H](CO)N1C[C@H](C)[C@@H](CN(C)C(=O)Nc2ccc3c(c2)OCO3)Oc2c(cccc2N(C)C)C1=O,inactive,
Cc1cc(C)c2cc(C#N)c(SCC(=O)NCc3ccco3)nc2c1,active: 18.4 µM,
Cc1ccc(CSc2nc3ccncc3n2Cc2nc(-c3ccccc3C)oc2C)cc1,"inconclusive [inhibitor, single point]",
Cc1cccc(N2C(=O)N(Cc3cccc(C#N)c3)c3ccccc3S2(=O)=O)c1,"inconclusive [inhibitor, single point]",
Nc1ccc2nc(NC(=O)C3CCCCC3)sc2c1,"inconclusive [inhibitor, partial curve]",
CCCCn1nnnc1C(c1cc2ccccc2o1)N1CCN(C/C=C/c2ccccc2)CC1 (centres undefined),active: 20.6 µM,
CSCCC(NS(=O)(=O)c1ccccc1F)C(=O)N1CCCCCC1 (centres undefined),inactive,
CCCc1nnc(NC(=O)C(CC)Sc2nnc3c4ccccc4n(C)c3n2)s1 (centres undefined),"inconclusive [inhibitor, single point]",
CCc1ccc(C)[n+](CC(=O)c2cccs2)c1,,inconclusive: -33.5% [inhibitor]

Compound,Potency,"activity change, negative = growth inhibition"
CCc1ccc(NC(=O)CC2S/C(=N/N=C3CCCCCC3)NC2=O)cc1 (centres undefined),"inconclusive [inhibitor, single point]",
CCOC(=O)c1c(NC(=O)CN2C(=O)NC3(CCCCCC3)C2=O)sc(C)c1-c1ccc(C)cc1,active: 23.1 µM,
CCOC(=O)C1=C(C)NC(C)=C(C(=O)OCC)C1c1ccc(OC)c(OC)c1,"inconclusive [inhibitor, single point]",
COc1ccccc1/C=C(\NC(=O)c1ccccc1)C(=O)NCc1ccco1,,inconclusive: -38.1% [inhibitor]
CNc1ncnc2c1ncn2[C@H]1CN(Cc2cccs2)C[C@@H](CO)O1,inactive,
COc1ccc(-c2nc3cc(C)ccc3cc2CN(C(=O)c2cc(C)nn2C)C2CC2)cc1OC,"inconclusive [inhibitor, single point]",
Cc1ccc(Nc2nc(Nc3ccc(C)cc3)nc(SC3=NCCS3)n2)cc1,"inconclusive [inhibitor, single point]",
CC(C)N(Cc1nc(-c2ccc(Cl)cc2)no1)C(=O)c1ccco1,"inconclusive [inhibitor, partial curve]",
COc1cc2nc(CSc3nc(-c4ccc(F)cc4)cs3)[nH]c(=O)c2cc1OC,active: 14.6 µM,
Cc1cccc(OCC(=O)OC(C)C(=O)Nc2ccc(S(=O)(=O)N3CCCCC3)cc2)c1 (centres undefined),inactive,
COc1ccc2c(c1)c1c(c(=O)n(-c3cccc(C)c3)c(=O)n1CC(=O)NCc1ccc(C)cc1)n2C,"inconclusive [inhibitor, full curve]",
CCCCOc1cccc(C(=O)NNC(=S)NC2CCCCC2)c1,"inconclusive [inhibitor, single point]",
O=C(NCCCc1ccccn1)C1CCC(=O)N(Cc2cccc(F)c2)C1 (centres undefined),inactive,
COc1ccccc1-n1c(=S)[nH]c2c(sc(=S)n2-c2ccccc2C)c1=O,"inconclusive [inhibitor, partial curve, poor fit]",
CCC(C)C1Nc2ccc(C(=O)NCCc3ccc(OC)c(OC)c3)cc2NC1=O (centres undefined),active: 16.4 µM,
CN(CCOC(=O)c1cccc(F)c1)Cc1ccccc1,inactive,
CCOc1ccccc1NC(=O)CCC(=O)Nc1nnc(C2CCCCC2)s1,inactive,
C[C@@]12C(=O)N(c3ccc(Cl)cc3)C(=O)N1[C@@H]1c3ccccc3OC[C@@H]1[C@H]2c1ccccc1,"inconclusive [inhibitor, single point]",
O=C(CCNC(=O)c1ccc(Br)cc1)Nc1ccccc1N1CCOCC1,,inconclusive: -22.1% [inhibitor]
Cc1coc2c1c(C)cc1oc(=O)c(CC(=O)NCCCN3CCCC3=O)c(C)c12,"inconclusive [inhibitor, single point]",
COC(=O)c1cc(C)nc2c1c(=O)nc(SCc1ccccc1Cl)n2C1CC1,inactive,
COc1ccc(NC(=O)Cc2ccccc2F)cc1S(=O)(=O)N1CCCCC1,inactive,
